The results in this text go back to PubChem BioAssay AID463173 (ICCB-Longwood Screening Facility, Harvard Medical School, 2010).

Each structure is given as a SMILES string. Hit rate of the full screen: of about 52,000 compounds, about 4,300 (8.3%) were called active. Rule as the data show it: active = survival mostly below about 52% (no sharp cut-off); inactive = mostly above about 56%. The list shows a part of the results.

The assay deals with DeltatarO mutant. The assay is described as follows: S. aureus survival, RN4220 and DeltatarO strains – OD600, teichoic acid synthesis inhibitors, primary screen (AID 463173). To be noted: S. aureus RN4220 wild type/DeltatarO growth, OD600, 18 h, hits give low values, screened at 18.75 µg/mL (by protocol).
With `CSc1ccc(CCNC(=O)Cn2nc(C)n3c(cc4sccc43)c2=O)cc1`, the survival was inactive: 88%.

On to `Cc1nc(-c2ccc(Cl)cc2)sc1CCNC(=O)C(=O)Nc1ccc2c(c1)OCO2`, for which the survival is inactive: 71%.

With `COc1ccc(CNC(=O)C(=O)NCC(c2ccco2)S(=O)(=O)c2ccc(Cl)cc2)cc1` (centres undefined), the survival was inactive: 128%.

`Cn1c(=O)c2c(nc(SCC(=O)Nc3ccccc3F)n2Cc2ccccc2F)n(C)c1=O`: the survival was inactive: 65%.

As for `CCOC(=O)c1cccc(NC(=O)Cn2ncc3c(=O)oc4ccccc4c32)c1`, the survival was inactive: 74%.

In the case of `CC1(C)Oc2ccc(NC(=O)c3ccco3)cc2O1`, the survival is inactive: 97%.

Regarding `CCOC(=O)c1c(C)oc2ncnc(Nc3cccc(C(F)(F)F)c3)c12`, the survival was inactive: 105%.

On to `CCc1ccc(NC(=O)CC(NCc2cccnc2)C(=O)O)cc1` (centres undefined), for which the survival is inactive: 68%.

As to `O=c1oc2ccccc2cc1-c1cn2cc(Cc3ccc(F)cc3)sc2n1`, the survival is inactive: 128%.

On to `Cc1ccc(OCC(=O)Nc2ccc(OCc3cc(=O)n4c(C)csc4n3)cc2)cc1C`, for which the survival is inactive: 124%.

`COc1cc2nc(C3CCC3)n(NC(=O)c3ccco3)c(=O)c2cc1OC`: the survival is inactive: 82%.

Consider `CSc1nn(Cc2ccc(F)cc2)c(N(C(C)=O)C(C)=O)c1S(=O)(=O)c1ccccc1`, for which the survival is inactive: 74%.

Consider `CCc1cccc(CC)c1NC(=O)CN(C)S(=O)(=O)c1ccc2c(c1)n(C)c(=O)c(=O)n2C`, for which the survival is inactive: 80%.

Take `CC(=O)Nc1c(C(=O)c2ccc(F)cc2)oc2ccccc12`: the survival is inactive: 106%.

Take `COc1cccc(CNC(=O)C2CCCN(c3nnc(-n4c(C)ccc4C)s3)C2)c1OC` (centres undefined): the survival is inactive: 84%.

With `CCCCN(C(=O)c1cccs1)c1nnc(-c2cc(OC)cc(OC)c2)s1`, the survival was inactive: 68%.

In the case of `COc1cccc(NC(=O)Cn2c(=O)oc3cc(S(=O)(=O)N4CCCCC4)ccc32)c1`, the survival is inactive: 112%.

Take `Cc1ccc(C(=O)c2oc3ccccc3c2NC(=O)COc2ccc(Cl)c(C)c2)cc1`: the survival is inactive: 90%.

For the compound `COc1cc(C2CC(=O)Nc3cc4c(cc32)OCO4)cc(OC)c1O` (centres undefined), the survival was inactive: 92%.

In the case of `Cc1c(C)n(Cc2ccc(Cl)cc2)c2ccc(C(=O)N3CCN(c4ccccc4F)CC3)cc12`, the survival was inactive: 81%.

Take `COc1ccc(OC)c(CCNC(=O)c2nc(-c3ccc(Cl)cc3)n3c2CCCCC3)c1`: the survival was inactive: 78%.

Turning to `O=S(=O)(NC1CCCC1)c1cccc(S(=O)(=O)N2CCCCC2)c1`, the survival is inactive: 85%.

For `CC(C)COc1ccc(C(=O)N2CCCCC2CCN2CCOCC2)cc1` (centres undefined), the survival was inactive: 82%.

As to `COc1ccc(S(=O)(=O)c2c(Nc3cccc(Cl)c3)sc(C(=O)c3ccccc3)c2N)cc1`, the survival was inactive: 66%.
